In PubChem BioAssay AID1347055 (National Center for Advancing Translational Sciences (NCATS), 2019):
The campaign covered roughly 54,000 compounds. About 120 (0.22%) were called active. Inconclusive means that the source gave no clear call. Such entries were picked first, then a sample of the others. The call rests on the fitted dose curve; in most records, active means well fitted inhibition curve with a large enough effect; inconclusive means small, poorly fitted or top-dose-only effect, or effect the other way; inactive means flat fitted curve, though single readings scatter. No potency is given beside an inconclusive call; the fits are too rough.

target: Fumarate hydratase, mitochondrial (Homo sapiens) (UniProt P07954); assay: Identification of activators of human fumarate hydratase by quantitative high-throughput screening; details: FH coupled MDH/diaphorase resazurin fluorescence, 15 min; activity change, negative = inhibition: at 79.9 µM (top of the series); further: the screen sought activators but most active calls are inhibition curves; nearly all actives have a fitted effect of over 45% in size
Chain of UniProt P07954 (P07954 whole entry, looked up): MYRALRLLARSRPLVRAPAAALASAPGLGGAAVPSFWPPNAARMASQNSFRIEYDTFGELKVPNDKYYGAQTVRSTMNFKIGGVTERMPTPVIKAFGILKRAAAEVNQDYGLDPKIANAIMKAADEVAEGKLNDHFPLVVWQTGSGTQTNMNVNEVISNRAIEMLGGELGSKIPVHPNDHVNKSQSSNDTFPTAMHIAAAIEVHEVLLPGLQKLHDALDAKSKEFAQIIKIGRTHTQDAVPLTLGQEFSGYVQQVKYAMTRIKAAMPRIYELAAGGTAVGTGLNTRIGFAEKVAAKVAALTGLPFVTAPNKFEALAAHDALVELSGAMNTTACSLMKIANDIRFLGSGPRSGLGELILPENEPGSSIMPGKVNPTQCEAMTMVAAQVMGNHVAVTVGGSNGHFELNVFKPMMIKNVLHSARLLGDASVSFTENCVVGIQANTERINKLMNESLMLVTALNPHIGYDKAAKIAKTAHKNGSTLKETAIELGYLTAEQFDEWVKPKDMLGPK
On the % scale 0 is the no-effect control and ±100 the full control effect; potency means the concentration at half of the fitted maximal effect; tags describe the fitted curve by direction and shape.

Structure (SMILES) | Potency | activity change, negative = inhibition
O=C(/C=C/c1ccc(O)c(O)c1)O[C@@H]1C[C@@](OC(=O)/C=C/c2ccc(O)c(O)c2)(C(=O)O)C[C@@H](O)[C@@H]1O | inconclusive [inhibitor, partial curve] | –
CCCc1[nH]nc2c1C(c1cc(Cl)cc(Cl)c1O)C(C#N)=C(N)O2 (stereo not drawn) | inactive | –
CC1=C(/C=C/C(C)=C/C=C/C(C)=C/C(=O)O)C(C)(C)CCC1 | inconclusive [inhibitor, partial curve] | –
Cc1ccc(NC(=O)c2ccc(COc3ccccc3Cl)o2)cc1 | inconclusive [inhibitor, single point] | –
CN(C)c1cccc(C(=O)Nc2nc3ccc(S(=O)(=O)NC(C)(C)C)cc3s2)c1 | inconclusive [inhibitor, partial curve, poor fit] | –
Cc1ccccc1NS(=O)(=O)c1ccc2c(c1)NC(=O)CCS2 | inactive | –
Cc1[nH]c2ccc(C(=O)Nc3ccc(F)cc3)cc2c1C | inconclusive [inhibitor, single point] | –
COc1ccc(CCn2c(=O)c3ccccc3n(CC(=O)Nc3cccc(C)c3)c2=O)cc1OC | inactive | –
Cc1ccc(NC(=O)c2cc(S(=O)(=O)NC3CCCCCC3)ccc2F)cc1F | inconclusive [inhibitor, partial curve, poor fit] | –
CCc1ccc2occ(CC(=O)Nc3nnc(C)s3)c2c1 | inconclusive [inhibitor, partial curve, poor fit] | –
CC(C)(C)c1ccc(C(=O)NNc2ncnc3c2cnn3-c2ccc(Cl)cc2)cc1 | inactive | –
N#C/C(=C1\Nc2ccccc2S1)c1ccnc(NCCc2cccnc2)n1 | inconclusive [inhibitor, single point] | –
Cc1ccccc1C(=O)Nc1sc2c(c1C(=O)O)CCC(C(C)(C)C)C2 (stereo not drawn) | inconclusive [inhibitor, partial curve] | –
CCOC(=O)C1CCN(C(c2ccc(C)cc2)c2c(O)cc(C)n(CCOC)c2=O)CC1 (stereo not drawn) | – | inconclusive: -31.2% [inhibitor]
Cc1cccc(NC(=O)CCNS(=O)(=O)c2ccc3c(c2)CCN3C(=O)C2CC2)c1 | inactive | –
Nc1ccc(O)c([N+](=O)[O-])c1 | inconclusive [inhibitor, partial curve] | –
COc1ccc(C(=O)Oc2c(Sc3ccc(C)cc3)c(C)nn2C(C)(C)C)cc1OC | inconclusive [inhibitor, single point] | –
Cc1ccc2c(CNCc3ccc(C)o3)c(C(=O)O)n(Cc3ccc(F)cc3)c2c1 | inconclusive [inhibitor, single point] | –
